Test results: the supplement of paper PMC4967469
A lower IC50 marks a more sensitive line; fits outside the tested doses are given as limits. AUC, from the same fit, is the share of area under the viability curve across the 256-fold dose range; it is 1 without any effect and falls as sensitivity rises. For some assays here: Any top dose called inferred was calculated from the reported fits.

What was measured:
Assay in all cases: Viability of human cancer cell lines after 72 h of drug (GDSC screen)
CCT018159 = compound: CCc1cc(-c2n[nH]c(C)c2-c2ccc3c(c2)OCCO3)c(O)cc1O [CCT018159]; details: top dose 10 µM; top dose inferred
Procedure: (§1)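 Human cancer cell lines in 384-well plates, medium with 10% serum, drug for 72 h over a 256-fold dose range (nine 2-fold or five 4-fold steps up to the top dose). Adherent lines were fixed and stained with the nucleic acid dye Syto60, suspension lines read with resazurin; signal relative to control wells, capped at 0 and 100%. One two-parameter sigmoid per drug and line, fitted in a mixed model over all curves with the slope shared within a line.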

VX-11e = compound: Cc1cnc(Nc2ccc(F)cc2Cl)nc1-c1c[nH]c(C(=O)N[C@H](CO)c2cccc(Cl)c2)c1 [VX-11e]; details: top dose 5.12 µM; top dose inferred
Procedure: as §1

BMX-IN-1 (QL-XII-61) = compound: C=CC(=O)Nc1cc(-n2c(=O)ccc3cnc4ccc(-c5ccc(NS(C)(=O)=O)cc5)cc4c32)ccc1C [BMX-IN-1 (QL-XII-61)]; details: top dose 10 µM; top dose inferred
Procedure: as §1

TG101348 = compound: Cc1cnc(Nc2ccc(OCCN3CCCC3)cc2)nc1Nc1cccc(S(=O)(=O)NC(C)(C)C)c1 [TG101348]; details: top dose 10.24 µM
Procedure: as §1

Dimethyloxalylglycine = compound: COC(=O)CNC(=O)C(=O)OC [Dimethyloxalylglycine]; details: top dose 4000 µM; top dose inferred
Procedure: as §1

17-AAG = compound: C=CCNC1=C2C[C@@H](C)C[C@H](OC)[C@H](O)[C@@H](C)/C=C(\C)[C@H](OC(N)=O)[C@@H](OC)/C=C\C=C(/C)C(=O)NC(=CC1=O)C2=O [17-AAG]; details: top dose 1 µM
Procedure: as §1

Vismodegib = compound: CS(=O)(=O)c1ccc(C(=O)Nc2ccc(Cl)c(-c3ccccn3)c2)c(Cl)c1 [Vismodegib]; details: top dose 10 µM; top dose inferred
Procedure: as §1

BIX02189 = compound: CN(C)Cc1cccc(N=C(c2ccccc2)c2c(O)[nH]c3cc(C(=O)N(C)C)ccc23)c1 [BIX02189]; details: top dose 20 µM; top dose inferred
Procedure: as §1

Doxorubicin = compound: COc1cccc2c1C(=O)c1c(O)c3c(c(O)c1C2=O)C[C@@](O)(C(=O)CO)C[C@@H]3O[C@H]1C[C@H](N)[C@H](O)[C@H](C)O1 [Doxorubicin]; details: top dose 1.024 µM
Procedure: as §1

OSI-027 = compound: COc1cccc2cc(-c3nc([C@H]4CC[C@H](C(=O)O)CC4)n4ncnc(N)c34)[nH]c12 [OSI-027]; details: top dose 20 µM
Procedure: as §1

UNC1215 = compound: O=C(c1ccc(C(=O)N2CCC(N3CCCC3)CC2)c(Nc2ccccc2)c1)N1CCC(N2CCCC2)CC1 [UNC1215]; details: top dose 1 µM; top dose inferred
Procedure: as §1

Row | Cell Line | AUC (CCT018159) | IC50 (CCT018159) | AUC (VX-11e) | IC50 (VX-11e) | AUC (BMX-IN-1 (QL-XII-61)) | IC50 (BMX-IN-1 (QL-XII-61)) | AUC (TG101348) | IC50 (TG101348) | AUC (Dimethyloxalylglycine) | IC50 (Dimethyloxalylglycine) | AUC (17-AAG) | IC50 (17-AAG) | AUC (Vismodegib) | IC50 (Vismodegib) | AUC (BIX02189) | IC50 (BIX02189) | AUC (Doxorubicin) | IC50 (Doxorubicin) | AUC (OSI-027) | IC50 (OSI-027) | AUC (UNC1215) | IC50 (UNC1215)
1 | NCI-H1975 (lung adenocarcinoma, adherent) | 0.786 | 5 µM | 0.917 | > 5.12 µM | 0.98 | > 10 µM | 0.779 | 4.81 µM | 0.303 | 63.8 µM | 0.441 | 0.0422 µM | 0.969 | > 10 µM | 0.952 | > 20 µM | 0.496 | 0.0622 µM | 0.719 | 5.77 µM | 0.981 | > 1 µM
2 | HuP-T3 (pancreas, adherent) | 0.901 | > 10 µM | 0.942 | > 5.12 µM | 0.975 | > 10 µM | 0.827 | 8.2 µM | 0.586 | 452 µM | 0.715 | 0.294 µM | 0.981 | > 10 µM | 0.916 | > 20 µM | 0.62 | 0.148 µM | 0.792 | 11.4 µM | 0.979 | > 1 µM
3 | Mo-T (hairy cell leukaemia, suspension) | 0.829 | 6.38 µM | 0.949 | > 5.12 µM | 0.827 | 6.27 µM | 0.862 | 9.06 µM | 0.765 | 1500 µM | 0.907 | > 1 µM | 0.847 | 7.62 µM | 0.94 | > 20 µM | 0.8 | 0.509 µM | 0.418 | 0.74 µM | 0.986 | > 1 µM
4 | SHP-77 (small cell lung carcinoma, semi-adherent) | 0.877 | 8.2 µM | 0.954 | > 5.12 µM | 0.987 | > 10 µM | 0.876 | 8.33 µM | 0.691 | 804 µM | 0.88 | 0.847 µM | 0.991 | > 10 µM | 0.971 | > 20 µM | 0.98 | > 1.02 µM | 0.511 | 1.34 µM | 0.968 | > 1 µM
5 | NCI-H1437 (lung adenocarcinoma, adherent) | 0.843 | 7.55 µM | 0.899 | > 5.12 µM | 0.985 | > 10 µM | 0.805 | 5.41 µM | 0.37 | 108 µM | 0.609 | 0.126 µM | 0.975 | > 10 µM | 0.983 | > 20 µM | 0.512 | 0.069 µM | 0.457 | 0.951 µM | 0.981 | > 1 µM
6 | SK-MEL-30 (melanoma, adherent) | 0.942 | > 10 µM | 0.657 | 0.895 µM | 0.984 | > 10 µM | 0.844 | 7.95 µM | 0.619 | 541 µM | 0.848 | 0.808 µM | 0.975 | > 10 µM | 0.96 | > 20 µM | 0.41 | 0.0359 µM | 0.547 | 1.69 µM | 0.984 | > 1 µM
7 | KMH-2 (thyroid, adherent) | 0.941 | > 10 µM | 0.986 | > 5.12 µM | 0.987 | > 10 µM | 0.766 | 3.38 µM | 0.775 | 1410 µM | 0.926 | > 1 µM | 0.99 | > 10 µM | 0.99 | > 20 µM | 0.463 | 0.0514 µM | 0.236 | 0.24 µM | 0.989 | > 1 µM
8 | NCI-H2087 (lung adenocarcinoma, semi-adherent) | 0.905 | > 10 µM | 0.833 | 3.65 µM | 0.984 | > 10 µM | 0.936 | > 10.2 µM | 0.374 | 109 µM | 0.619 | 0.136 µM | 0.984 | > 10 µM | 0.93 | > 20 µM | 0.465 | 0.0509 µM | 0.65 | 3.37 µM | 0.984 | > 1 µM
9 | NMC-G1 (glioma, adherent) | 0.913 | > 10 µM | 0.949 | > 5.12 µM | 0.87 | > 10 µM | 0.803 | 6.5 µM | 0.58 | 435 µM | 0.716 | 0.298 µM | 0.978 | > 10 µM | 0.895 | > 20 µM | 0.484 | 0.0574 µM | 0.527 | 1.5 µM | 0.978 | > 1 µM
10 | Becker (glioma, adherent) | 0.819 | 6.64 µM | 0.948 | > 5.12 µM | 0.968 | > 10 µM | 0.899 | > 10.2 µM | 0.511 | 270 µM | 0.456 | 0.0467 µM | 0.962 | > 10 µM | 0.967 | > 20 µM | 0.79 | – | 0.511 | 1.35 µM | 0.982 | > 1 µM
11 | SIMA (neuroblastoma, adherent) | 0.918 | > 10 µM | 0.886 | > 5.12 µM | 0.983 | > 10 µM | 0.753 | 3.82 µM | 0.646 | 669 µM | 0.985 | > 1 µM | 0.985 | > 10 µM | 0.915 | > 20 µM | 0.774 | 0.456 µM | 0.715 | 5.57 µM | 0.984 | > 1 µM
12 | LS-513 (large intestine, adherent) | 0.808 | 5.44 µM | 0.557 | 0.462 µM | 0.965 | > 10 µM | 0.799 | 5.15 µM | 0.778 | 1690 µM | 0.81 | 0.552 µM | 0.987 | > 10 µM | 0.813 | 11.3 µM | 0.923 | > 1.02 µM | 0.718 | 5.31 µM | 0.986 | > 1 µM
